Data as given in the BET-seq Pho4 binding data (Le et al. 2018).
Some of the results follow. These are noisy estimates, calculated here from bound and input reads.

Target: T1, Pho4 (S. cerevisiae) (UniProt P07270)
T1 sequence: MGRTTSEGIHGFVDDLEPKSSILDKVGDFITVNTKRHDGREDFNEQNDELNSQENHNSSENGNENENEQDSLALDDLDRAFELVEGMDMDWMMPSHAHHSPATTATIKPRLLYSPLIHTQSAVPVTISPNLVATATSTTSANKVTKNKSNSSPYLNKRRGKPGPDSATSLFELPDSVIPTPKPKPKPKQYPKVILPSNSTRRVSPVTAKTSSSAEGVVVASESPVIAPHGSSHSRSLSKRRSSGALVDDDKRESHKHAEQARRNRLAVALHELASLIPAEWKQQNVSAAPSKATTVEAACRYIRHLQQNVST
Experiment: relative binding free energy (BET-seq); higher = weaker binding
Conditions: reference: library average

| Sequence | relative binding free energy [kcal/mol] |
| --- | --- |
| ATGTTCACGTGACTTT | 0.26 |
| ATATTCACGTGTAGGG | 0.29 |
| TGCTTCACGTGGCAGG | 0.16 |
| AGGGCCACGTGGCAGG | -0.24 |
| TGAGTCACGTGGCGGT | 0.03 |
| GGCCTCACGTGTTGGG | 0.21 |
| TATGTCACGTGAATGT | 0.39 |
| TTATTCACGTGCTTTA | 0.13 |
| TTTTTCACGTGGCAGT | 0.35 |
| CGACGCACGTGCGGGG | -0.1 |
| GAAATCACGTGTGTGT | 0.25 |
| CGGGTCACGTGGTCTG | 0.15 |
| AAGTGCACGTGCGGTG | -0.07 |
| CGTTACACGTGGTATG | -0.02 |
| AAAAGCACGTGTGTTT | 0.11 |
| TAGGTCACGTGTGAGG | 0.19 |
| AGGTACACGTGTGAGG | 0.13 |
| TATTTCACGTGGGACT | 0.05 |
| GTTCACACGTGTCTGT | 0.18 |
| CGGTGCACGTGGTCTG | -0.23 |
| GGCTTCACGTGTATGA | 0.26 |
| AATTGCACGTGTTCGG | 0.02 |
| TTGTGCACGTGGCGTA | -0.09 |

| Sequence | relative binding free energy [kcal/mol] |
| --- | --- |
| TTAGACACGTGGTCGG | -0.01 |
| CGAGGCACGTGATAGT | -0.06 |
| AGAGGCACGTGAGTAA | 0.24 |
| TGAAACACGTGGGTCG | -0.05 |
| TTTGACACGTGGTGGA | -0.03 |
| GTGAGCACGTGGCTTT | -0.11 |
| AGGATCACGTGGAAGG | 0.14 |
| AAGCTCACGTGGGTGT | 0.12 |
| TTGCGCACGTGGGAGT | -0.18 |
| TTGCCCACGTGAGTGT | 0.1 |
| ATGCTCACGTGGGGCG | -0.06 |
| TGTATCACGTGAGGAC | 0.44 |
| ATTTGCACGTGGGCTA | -0.23 |
| ATAAGCACGTGTGTAA | 0.01 |
| TCCTTCACGTGAGGGG | 0.45 |
| TGTATCACGTGAGAGA | 0.16 |
| TGAATCACGTGATGGT | 0.24 |
| GGCAGCACGTGTAGGA | -0.06 |
| ATGATCACGTGATGTG | 0.16 |
| AAGCTCACGTGGTAGT | 0.27 |
| TTAGACACGTGCATGT | 0.01 |
| GTAGCCACGTGCGGTG | -0.03 |
| GGGGGCACGTGCTGGC | -0.02 |

| Sequence | relative binding free energy [kcal/mol] |
| --- | --- |
| GATGGCACGTGGTGGT | -0.13 |
| TGTTGCACGTGTGTTC | -0.01 |
| ACTTTCACGTGAAGTG | 0.36 |
| GGGGTCACGTGCAATG | 0.12 |
| TTAGTCACGTGGTTGC | 0.04 |
| GTTTTCACGTGAAAGG | 0.43 |
| GTGTTCACGTGCTGAG | 0.23 |
| GGGCTCACGTGTGGAT | 0.34 |
| TGTGACACGTGACTGA | 0.23 |
| GTTTGCACGTGTAGCT | 0.12 |
| AGGTTCACGTGATCGG | 0.31 |
| TGGCGCACGTGCATTG | -0.1 |
| TATTTCACGTGGCGGA | 0.12 |
| TAGTGCACGTGAGGTC | 0.26 |
| CGTTTCACGTGGCGCG | 0.28 |
| TGCGTCACGTGTGAGA | 0.24 |
| ATACTCACGTGAGTGG | 0.31 |
| ATTGACACGTGGTCAG | -0.1 |
| TATGGCACGTGAAATG | 0.05 |
| TAGGACACGTGGTTAT | 0.03 |
| TGTATCACGTGCTGTC | 0.06 |
| GGGTACACGTGAGTGC | 0.3 |
| ATTAGCACGTGTAATG | 0.02 |

| Sequence | relative binding free energy [kcal/mol] |
| --- | --- |
| TGCTTCACGTGTGTTA | 0.09 |
| GCGTTCACGTGTAAGG | 0.38 |
| GCGGGCACGTGCGTGT | -0.24 |
| TGAAGCACGTGATGGT | 0.12 |
| GCGGTCACGTGGCGCG | 0.15 |
| AGCAGCACGTGGTTGA | -0.17 |
| ATTTCCACGTGTAGGG | -0.01 |
| TCATTCACGTGCGGTT | 0.21 |
| GGAGTCACGTGTTTAT | 0.4 |
| GTCTCCACGTGGGTGG | -0.21 |
| TGGGTCACGTGCTTGT | 0.05 |
| GCAAACACGTGGTGGG | -0.04 |
| ATGTTCACGTGGTCAA | 0.15 |
| TTGATCACGTGGGCGG | -0.1 |
| GGTGCCACGTGTGTAG | -0.09 |
| ATTGCCACGTGGGCGG | -0.22 |
| AGAGGCACGTGCTGTT | -0.15 |
| GTCATCACGTGAGATT | 0.57 |
| GTGTCCACGTGCGGGT | 0.03 |
| GGCGACACGTGTTTAT | 0.18 |
| AGCGGCACGTGATCGG | -0.01 |
| ATGTCCACGTGCGGTA | 0.05 |
| TTGTGCACGTGTGTCT | 0.09 |

| Sequence | relative binding free energy [kcal/mol] |
| --- | --- |
| TTTCACACGTGTGGTT | 0.05 |
| GGTGTCACGTGGTTCA | 0.18 |
| TGACGCACGTGTAGGG | -0.2 |
| ATAAGCACGTGTAAGT | -0.05 |
| CTGGGCACGTGTTGAT | -0.11 |
| GAGGGCACGTGTGTTA | -0.04 |
| TATGGCACGTGGAAGT | 0.01 |
| TTTTACACGTGTTTAG | 0.12 |
| TTATTCACGTGCCTGT | 0.32 |
| TCGTGCACGTGGATGA | -0.06 |
| CGTTACACGTGGGGGT | -0.08 |
| TTTTACACGTGCGTGA | 0.07 |
| TTAGTCACGTGGTGCG | -0.02 |
| AATATCACGTGTGTGT | 0.08 |
| GGTGGCACGTGAGGCG | 0.15 |
| TTTTCCACGTGAAATT | 0.43 |
| ACTTGCACGTGTCGGT | 0.01 |
| GGTCGCACGTGGTTGG | 0.02 |
| TGCGTCACGTGGGAGG | -0.01 |
| GTGGTCACGTGGCGGC | 0.08 |
| GGATACACGTGGTTAT | 0.05 |
| CACTTCACGTGTTTGT | 0.22 |
| TTACTCACGTGGGGTC | 0.13 |
